Experimental data taken from PubChem BioAssay AID1030 (National Center for Advancing Translational Sciences (NCATS), 2008).
Among all 220,000 compounds or so, about 16,000 (7.3%) were called active. Inconclusive means that the source gave no clear call. Such entries were picked first, then a sample of the others. Calls come from the whole dose curve; as a rule, active = well fitted inhibition curve with a large enough effect (not every such curve was filed as active); inconclusive = small, poorly fitted or top-dose-only effect, or another doubt; inactive = no such curve, though single readings can be large or run the other way. Potencies of inconclusive entries are left out as doubtful fits.

Target: Aldehyde dehydrogenase 1A1 (Homo sapiens) (UniProt P00352)
Test: qHTS Assay for Inhibitors of Aldehyde Dehydrogenase 1 (ALDH1A1);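 for activity, negative = inhibition: plate controls were no enzyme wells and a reference inhibitor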
Details: Purified ALDH1A1, NADH fluorescence, propionaldehyde substrate; series mostly up to 75.3 µM; activity, negative = inhibition: at the top concentration
Potency is the fitted concentration of half-maximal effect; tags give direction and shape of the fitted curve.

Sequence of UniProt P00352 (P00352 whole entry, looked up): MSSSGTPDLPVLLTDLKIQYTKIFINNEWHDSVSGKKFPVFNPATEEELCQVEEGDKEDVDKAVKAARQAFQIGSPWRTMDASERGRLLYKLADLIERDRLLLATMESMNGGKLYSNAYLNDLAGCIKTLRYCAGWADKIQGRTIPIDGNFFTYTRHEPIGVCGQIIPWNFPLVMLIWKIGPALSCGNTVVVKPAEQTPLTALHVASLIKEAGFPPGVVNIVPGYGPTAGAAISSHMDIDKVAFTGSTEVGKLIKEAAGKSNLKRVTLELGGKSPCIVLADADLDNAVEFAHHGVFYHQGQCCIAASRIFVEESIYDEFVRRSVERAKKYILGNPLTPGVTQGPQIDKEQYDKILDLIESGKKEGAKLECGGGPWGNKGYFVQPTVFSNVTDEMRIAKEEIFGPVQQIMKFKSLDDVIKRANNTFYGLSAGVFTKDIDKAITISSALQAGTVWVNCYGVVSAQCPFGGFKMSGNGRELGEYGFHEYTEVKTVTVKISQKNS

| SMILES | Potency | activity, negative = inhibition |
| --- | --- | --- |
| Cc1cc(C(=O)c2ccc(Cl)cc2)c(NC(=O)CCl)s1 | active: 0.891 µM |  |
| O=c1[nH]c(SCc2ccc(F)cc2Cl)nc2ccccc12 |  | inactive: 6.07% |
| CCCSc1nc(O)c(C(c2ccc(OC)c(O)c2)c2c(O)nc(SCCC)n(C)c2=O)c(=O)n1C | inconclusive [inhibitor, single point] |  |
| COc1ccc(C2N(C(=O)CN3CCOCC3)CCN2S(=O)(=O)c2ccccc2)cc1 (configuration not stated) |  | inactive: -1.48% |
| COc1ccc2[nH]cc(CCNc3ccnc(-c4cccnc4)n3)c2c1 |  | inactive: 9.02% |
| O=C(N/N=C/c1cccnc1)c1cccc(S(=O)(=O)N2CCCC2)c1 |  | inactive: 7.88% |
| COC(=O)CSc1nnc(-c2ccc(NS(=O)(=O)c3ccccc3)cc2)o1 |  | inactive: 2.5% |
| Oc1[nH]c2c(Cl)cc(Cl)cc2c1N=NC(=S)NCC1CCCO1 (configuration not stated) | active: 0.447 µM |  |
| Cn1c(SCC(=O)N/N=C/C=C\c2ccccc2[N+](=O)[O-])nc2ccccc21 |  | inactive: 15.5% |
| Cc1ccc(-c2nn(-c3ccccc3)cc2/C=C/C(=O)OCC(=O)NC2CC2)o1 | inconclusive [inhibitor, single point] |  |
| COc1ccc(C(=O)N2CCC3(CCCN(C(=O)Nc4cccc(C#N)c4)C3)CC2)cc1 | inconclusive [inhibitor, single point] |  |
| Cn1cnnc1SCC(=O)c1ccco1 | inconclusive [inhibitor, single point] |  |
| CN(c1ccc(OCC(=O)OCC(=O)Nc2c(F)c(F)c(F)c(F)c2F)cc1)S(=O)(=O)c1ccc(F)cc1 |  | inactive: 7.3% |
| COc1ccc2cc(C#N)c(N3CCN(Cc4nnnn4CCC(C)C)CC3)nc2c1 | inconclusive [inhibitor, single point] |  |
| CC(C)n1c(CCC(=O)O)ccc1-c1ccccc1 | inconclusive [inhibitor, single point] |  |
| Cc1cccc(C(=O)NCC(=O)N2CC(=O)Nc3ccccc32)c1 | inconclusive [inhibitor, single point] |  |
| C/C(=C\C(=O)c1ccc(Br)cc1)Nc1ccc(Cl)cc1 | inconclusive [inhibitor, partial curve, poor fit] |  |
| OC(C#CCN1CCCC1)c1ccccc1 (configuration not stated) | inconclusive [inhibitor, partial curve] |  |
| CCOC(=O)C1CCN(C(=O)CSc2cc(=O)n(C)c3ccccc23)CC1 | inconclusive [inhibitor, partial curve] |  |
| CCCC(=O)Nc1sc(C(=O)Nc2cccc(N)c2)c(C)c1C(=O)OC |  | inactive: 0.0785% |
| CCC(=O)Nc1nc2nc(-c3ccccc3)cc(-c3ccccc3)n2n1 | inconclusive [inhibitor, partial curve] |  |
| CC1CCN(C(=O)C2CCN(S(=O)(=O)c3cccnc3)CC2)CC1 |  | inactive: -5.47% |
| C=CCNC(=O)/C(C#N)=C/c1cc(Br)ccc1OC | inconclusive [inhibitor, partial curve] |  |
| CC(C)(C)NC(=O)c1ccc2nsnc2c1 |  | inactive: 4.09% |

| SMILES | Potency | activity, negative = inhibition |
| --- | --- | --- |
| CC(=O)Nc1ccc(NC(=O)CSC2=NCCS2)cc1 | inconclusive [inhibitor, single point] |  |
| O=C(CN1CCN(Cc2ccccc2Cl)C1=O)NC1CCCCCCC1 | inconclusive [inhibitor, partial curve] |  |
| COc1ccc(N2CCN(C(=O)CCS(=O)(=O)c3cccc4nsnc34)CC2)cc1 | inconclusive [inhibitor, single point] |  |
| Cc1ccc(/C=C2\SC(=S)N(CC(=O)Nc3ncc(Cc4ccccc4Cl)s3)C2=O)cc1 | inconclusive [inhibitor, single point] |  |
| O=C(O)CCCn1nc(C(F)(F)F)c2c1CCCCC2 | inconclusive [inhibitor, single point] |  |
| COc1ccc(/C=C(\NC(=O)c2ccc(OCC(C)C)cc2)C(=O)OCc2ccco2)cc1 |  | inactive: -4.85% |
| COc1ccc2[nH]c(=O)c(CN(CCc3cccc(C)c3)C(C)=O)cc2c1 | inconclusive [inhibitor, single point] |  |
| COc1ccccc1N1C(=O)c2ccc(C(=O)Nc3nccs3)cc2C1=O | inconclusive [inhibitor, partial curve] |  |
| CCOC(=O)c1nn(-c2ccccc2C)c(=O)c2c(N)scc12 | active: 9.46 µM |  |
| O=C(O)Cc1sc(-c2ccccc2Cl)nc1-c1ccccc1 | inconclusive [inhibitor, partial curve] |  |
| O=C(OC1CCOC1=O)c1ccc2ncsc2c1 (configuration not stated) |  | inactive: 7.34% |
| O=C(O)Cc1ccc(NC(=O)c2cccs2)cc1 |  | inactive: 15.9% |
| Cc1ccc(NC(=O)CSc2nnc(NC(=O)c3ccc(S(=O)(=O)N4CCOCC4)cc3)s2)cc1 | inconclusive [inhibitor, single point] |  |
| CC(C)C[C@H](NC(=O)OC(C)(C)C)c1nnc(SCc2cccc(F)c2)o1 | inconclusive [inhibitor, single point] |  |
| COc1cccc(C2CC(C(F)(F)F)n3ncc(C(=O)O)c3N2)c1 (configuration not stated) |  | inactive: 14% |
| O=C(Nc1cccc(S(=O)(=O)N2CCOCC2)c1)c1ccc(N2CCOCC2)c([N+](=O)[O-])c1 | inconclusive [inhibitor, single point] |  |
| CC1CCCC(NC(=O)c2ccc(CNc3c(N4CCCC4)c(=O)c3=O)cc2)C1C (configuration not stated) | inconclusive [inhibitor, single point] |  |
| O=C(Nc1ccccc1O)c1nc(Cl)ccc1Cl | inconclusive [inhibitor, single point] |  |
| Cc1ccc(-n2nc(C)c3c2OC(N)=C(C#N)C3c2ccoc2)cc1 (configuration not stated) | active: 0.891 µM |  |
| CC(C)C(c1nnnn1C1CCCC1)N1CCCCC1 (configuration not stated) | inconclusive [inhibitor, single point] |  |
| NC(=O)C1CCN(C(=O)c2cc3ccccn3n2)CC1 |  | inactive: -5.15% |
| Cc1cc(C)c(C#N)c(SCC(=O)NN2CC(=O)N(c3ccccc3F)CC2=O)n1 | inconclusive [inhibitor, single point] |  |
| CC(NC(=O)c1ccc(Br)cc1)c1ccc2c(c1)CCCC2 (configuration not stated) | inconclusive [inhibitor, single point] |  |
